{"source": "the BET-seq Pho4 binding data (Le et al. 2018)", "note": "The other results are listed elsewhere or left out. These are noisy estimates, calculated here from bound and input reads.", "data": [{"target": "T1, Pho4 (S. cerevisiae) (UniProt P07270)", "T1 sequence": "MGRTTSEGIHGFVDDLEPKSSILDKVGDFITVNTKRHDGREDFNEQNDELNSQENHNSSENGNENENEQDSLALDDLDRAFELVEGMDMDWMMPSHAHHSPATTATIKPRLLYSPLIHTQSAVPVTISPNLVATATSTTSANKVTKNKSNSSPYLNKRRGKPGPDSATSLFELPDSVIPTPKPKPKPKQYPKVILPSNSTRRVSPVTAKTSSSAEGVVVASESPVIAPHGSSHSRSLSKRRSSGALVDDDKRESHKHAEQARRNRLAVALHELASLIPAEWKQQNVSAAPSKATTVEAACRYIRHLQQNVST", "experiment": "relative binding free energy (BET-seq); higher = weaker binding", "conditions": "reference: library average", "units": {"relative binding free energy": "kcal/mol"}, "values": [{"sequence": "GCGGTCACGTGCTTGG", "relative binding free energy": 0.06}, {"sequence": "GATTACACGTGGTTGG", "relative binding free energy": 0.18}, {"sequence": "AGGGACACGTGAATTT", "relative binding free energy": 0.16}, {"sequence": "GGTTTCACGTGAGGAG", "relative binding free energy": 0.49}, {"sequence": "TGTGGCACGTGAGAGG", "relative binding free energy": 0.21}, {"sequence": "CAGTGCACGTGTATTG", "relative binding free energy": -0.01}, {"sequence": "GGGATCACGTGCATGT", "relative binding free energy": 0.24}, {"sequence": "ATGGGCACGTGGAATT", "relative binding free energy": 0.11}, {"sequence": "ATTTTCACGTGAGTGA", "relative binding free energy": 0.31}, {"sequence": "TTCGGCACGTGGCGTT", "relative binding free energy": -0.22}, {"sequence": "TATCTCACGTGCTTTT", "relative binding free energy": 0.21}, {"sequence": "CTGTTCACGTGGTGTA", "relative binding free energy": 0.2}, {"sequence": "AATCACACGTGGTTGT", "relative binding free energy": 0.13}, {"sequence": "TGTGGCACGTGTACTA", "relative binding free energy": -0.11}, {"sequence": "CGTGGCACGTGGAAGG", "relative binding free energy": 0}, {"sequence": "CTTATCACGTGAGTGT", "relative binding free energy": 0.33}, {"sequence": "CGGGGCACGTGCTGGA", "relative binding free energy": -0.18}, {"sequence": "GTAGACACGTGTAGGG", "relative binding free energy": -0.03}, {"sequence": "GGGAGCACGTGTGATC", "relative binding free energy": 0.07}, {"sequence": "TGGGACACGTGAAAGG", "relative binding free energy": 0.32}, {"sequence": "GGCGGCACGTGTGAAG", "relative binding free energy": 0.13}, {"sequence": "TTCTTCACGTGATTAT", "relative binding free energy": 0.3}, {"sequence": "GGGTGCACGTGTAAAG", "relative binding free energy": 0.06}, {"sequence": "CACGTCACGTGGGGAT", "relative binding free energy": 0.02}, {"sequence": "ATACACACGTGTGTTG", "relative binding free energy": -0.1}, {"sequence": "CGAGACACGTGAGTGT", "relative binding free energy": 0.23}, {"sequence": "AGGTACACGTGAGGTG", "relative binding free energy": 0.23}, {"sequence": "GGAGACACGTGTGATG", "relative binding free energy": -0.08}, {"sequence": "GTGTGCACGTGTCATA", "relative binding free energy": -0.03}, {"sequence": "TATTTCACGTGTCGAA", "relative binding free energy": 0.27}, {"sequence": "CTGTTCACGTGATTGA", "relative binding free energy": 0.29}, {"sequence": "TTGTCCACGTGGCAGT", "relative binding free energy": -0.04}, {"sequence": "TTACTCACGTGGTTGA", "relative binding free energy": 0.24}, {"sequence": "TGTGGCACGTGAACGG", "relative binding free energy": 0.14}, {"sequence": "ATATTCACGTGAGCAT", "relative binding free energy": 0.46}, {"sequence": "GTGGGCACGTGGCTTA", "relative binding free energy": -0.16}, {"sequence": "ATGGACACGTGTTCGT", "relative binding free energy": 0.07}, {"sequence": "GGTAACACGTGAGTTG", "relative binding free energy": 0.2}, {"sequence": "AAATCCACGTGGGTGG", "relative binding free energy": -0.14}, {"sequence": "AGTAGCACGTGATAGG", "relative binding free energy": -0.13}, {"sequence": "GCACGCACGTGTGGGT", "relative binding free energy": -0.01}, {"sequence": "CGTTGCACGTGTCTTG", "relative binding free energy": 0.02}, {"sequence": "TTCGGCACGTGCTTTT", "relative binding free energy": -0.15}, {"sequence": "TCCTTCACGTGTAGGG", "relative binding free energy": 0.29}, {"sequence": "CCTGGCACGTGCGGGG", "relative binding free energy": -0.22}, {"sequence": "GTAGGCACGTGGGTCT", "relative binding free energy": -0.18}, {"sequence": "TATATCACGTGTGTGG", "relative binding free energy": 0.23}, {"sequence": "ACTTTCACGTGGGGGC", "relative binding free energy": 0.16}, {"sequence": "TGCTTCACGTGGTGTG", "relative binding free energy": 0.08}, {"sequence": "ATGAACACGTGGTGCG", "relative binding free energy": -0.02}, {"sequence": "GTTTACACGTGGGTCC", "relative binding free energy": 0.04}, {"sequence": "GTAGTCACGTGGGGGG", "relative binding free energy": 0.06}, {"sequence": "TGGGCCACGTGCCGGG", "relative binding free energy": -0.19}, {"sequence": "ATATGCACGTGTTTGT", "relative binding free energy": -0.02}, {"sequence": "TTGGGCACGTGTGAGT", "relative binding free energy": 0.02}, {"sequence": "TTGATCACGTGATTGG", "relative binding free energy": 0.25}, {"sequence": "TGTGGCACGTGATCGT", "relative binding free energy": -0.15}, {"sequence": "TCTTACACGTGGAGGG", "relative binding free energy": 0.1}, {"sequence": "TAGGGCACGTGTTTCG", "relative binding free energy": -0.2}, {"sequence": "TGTTTCACGTGCCGGT", "relative binding free energy": 0.27}, {"sequence": "GATGTCACGTGACGTT", "relative binding free energy": 0.24}, {"sequence": "TGGGGCACGTGGATAC", "relative binding free energy": -0.13}, {"sequence": "TGGATCACGTGATCGT", "relative binding free energy": 0.26}, {"sequence": "AGTTGCACGTGCGGAG", "relative binding free energy": 0}, {"sequence": "GGGAACACGTGGTGCG", "relative binding free energy": -0.04}, {"sequence": "TAGAACACGTGGAGGT", "relative binding free energy": -0.01}, {"sequence": "TGACTCACGTGGTCGG", "relative binding free energy": 0.12}, {"sequence": "GTTGGCACGTGTAAAG", "relative binding free energy": 0.17}, {"sequence": "ATTGCCACGTGAGTTG", "relative binding free energy": 0.16}, {"sequence": "TCAGTCACGTGGTAGG", "relative binding free energy": 0.03}, {"sequence": "GATTGCACGTGGGGTC", "relative binding free energy": -0.13}, {"sequence": "AATTCCACGTGGTTTA", "relative binding free energy": 0.04}, {"sequence": "TTTGTCACGTGGTTTG", "relative binding free energy": 0.15}]}]}
